# The other results are listed elsewhere or left out. These are further read-outs of the screen, such as a control signal, another cell line or another target. No call is given for them.
# What was measured:
# Test in all cases: Primary Screen for Target Class Profiling of Small Molecule Inhibitors of Methyltransferases
# [1] = biological target: Glycine N-methyltransferase (Homo sapiens) (UniProt Q14749); conditions: purified enzyme, MTase-Glo SAH luminescence; measured here: GNMT inhibition; at 40 µM; stronger effect = lower value
# In short: (§1)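 Each enzyme was assayed with SAM and its substrate. SAH formation detected by MTase-Glo luminescence; single-point 40 uM screen[…].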
# [2] = biological target: Guanidinoacetate N-methyltransferase (Homo sapiens) (UniProt Q14353); conditions: purified enzyme, MTase-Glo SAH luminescence; measured here: GAMT inhibition; at 40 µM; stronger effect = lower value
# In short: as §1
# [3] = biological target: Histamine N-methyltransferase (Homo sapiens) (UniProt P50135); conditions: purified enzyme, MTase-Glo SAH luminescence; measured here: HNMT inhibition; at 40 µM; stronger effect = lower value
# In short: as §1
# [4] = biological target: Nicotinamide N-methyltransferase (Homo sapiens) (UniProt P40261); conditions: purified enzyme, MTase-Glo SAH luminescence; measured here: NNMT inhibition; at 40 µM; stronger effect = lower value
# In short: as §1
# [5] = biological target: Phenylethanolamine N-methyltransferase (Homo sapiens) (UniProt P11086); conditions: purified enzyme, MTase-Glo SAH luminescence; measured here: PNMT inhibition; at 40 µM; stronger effect = lower value
# In short: as §1
# % is scaled to controls: 0 for no effect and ±100 for the full control effect.
Compound,"activity change, negative = inhibition [1]","activity change, negative = inhibition [2]","activity change, negative = inhibition [3]","activity change, negative = inhibition [4]","activity change, negative = inhibition [5]"
CCOCCN1C(=O)COC[C@@H]1[C@H](O)c1ccc(NC(=O)c2cccc(C#N)c2)cc1,-3.24%,-1.69%,0.403%,-5.3%,-27.4%
O=C(NC1CCCC1)N1CCCC(Cn2cnc3cccnc32)C1 (stereo not given),-0.89%,0.47%,1.9%,-2.59%,2.46%
CN(CCOc1cccc(Cl)c1)C(=O)c1cccc(CCC(C)(C)O)c1,-4.2%,-0.505%,-0.26%,-8.74%,0.709%
COCCCNC(=O)C1(C)Cn2nc(-c3ccccc3)cc2C(=O)N1Cc1ccc(OC)cc1 (stereo not given),0.109%,0%,1.3%,0.243%,-3.47%
NC1(C(=O)O)CCCCC1,2.85%,14.4%,5.71%,-1.37%,12.5%
COc1cccc(CSc2nnc3n(Cc4ccccc4)c(=O)c4ccccc4n23)c1,1.43%,0%,-0.282%,-3.54%,2.5%
COC(=O)c1cc2n(n1)CC(C)(C(=O)NC1CCCCC1)N(c1ccc(C)cc1C)C2=O (stereo not given),3.79%,0%,7.98%,8.96%,5.68%
CCN(CC)CCN1C(=O)c2ccc(-c3ccco3)n2CC1(C)C(=O)NC1CCCCC1 (stereo not given),3.89%,0%,7.32%,8.61%,1.06%
COc1cc(Br)c(Nc2nc(-c3c(C)nc4ncccn34)cs2)c(Br)c1,-12.8%,-2.81%,-5.88%,-27.6%,-3.27%
O=C(O)CCCCCCCC(=O)O,-5.77%,2.1%,-0.439%,-8.46%,-3.23%
COc1ccc(CN2C(=O)c3cc4ccccc4n3CC2(C)C(=O)NCCC(C)C)c(OC)c1 (stereo not given),1.76%,3.93%,2.19%,-4.78%,-2.65%
COc1cccc(CN2C(=O)c3cc4ccc(OC)cc4n3CC2(C)C(=O)NCC2CCCO2)c1 (stereo not given),2.18%,4.53%,4.55%,1.47%,1.09%
CC(C)CCNC(=O)C1c2c(n(C)c3ccccc23)SCC(=O)N1c1cccc(C(F)(F)F)c1 (stereo not given),8.44%,0.881%,1.97%,-2.75%,4.03%
COc1ccccc1CNC(=O)C1(C)Cn2c(cc3ccccc32)C(=O)N1CCc1cccs1 (stereo not given),6.84%,2.48%,7.27%,9.62%,1.2%
O=C(N[C@H]1CCN2C(=O)c3cc(-c4ccc(Cl)cc4)ccc3NC(=O)[C@H]12)C1CCCC1,-6%,-1.5%,-0.182%,-7.04%,-0.954%
CC1CCC2(O1)C(C)(C)CC(O[C@@H]1O[C@H](CO[C@@H]3OC[C@](O)(CO)[C@H]3O)[C@@H](O)[C@H](O)[C@H]1O)CC2(C)O (stereo not given in full),5.9%,2.95%,10.3%,-7.69%,0.788%
O=C(CCn1ccc2cc(S(=O)(=O)N3CCCCC3)ccc21)NCCc1c[nH]c2ccccc12,4.79%,0%,-8.81%,6.34%,2.54%
O=C(C(c1ccccc1)c1ccccc1)N1CCN(CC(O)COc2cccc3ncccc23)CC1 (stereo not given),-12.1%,-11.3%,-7.1%,-32.6%,-13.2%
Cc1cc(O[C@@H]2O[C@H](COC(=O)CC(=O)O)[C@@H](O)[C@H](O)[C@H]2O)c(C(C)C)cc1O,-2.99%,-0.807%,10%,-14.9%,-5.98%

Compound,"activity change, negative = inhibition [1]","activity change, negative = inhibition [2]","activity change, negative = inhibition [3]","activity change, negative = inhibition [4]","activity change, negative = inhibition [5]"
O=C(NCC1CC1)c1cccc(OC2CN(Cc3cc4ccccc4nc3Cl)C2)c1,-15.5%,0.588%,-4.64%,-13%,-10.3%
CC(C)(C)C(=O)CN1C(=O)[C@H](NC(=O)Nc2cccc(C(=O)O)c2)CN(C2CCCCC2)c2ccccc21,1.42%,5.88%,3.29%,-22.6%,1.11%
CCn1c2c(c(=O)n1-c1ccccc1)CCN(Cc1ncccn1)C2,-9.59%,-8%,-17.9%,-12.6%,-12%
C=C1CC23CC(=O)C4C(CO)(CO)CCCC4(C)C2CCC1C3 (stereo not given),-0.995%,-7.09%,-7.03%,-20.9%,-1.57%
CCCn1c(=O)c2ccc(C(=O)NC(C)CC)cc2n2c(=O)n(Cc3ccccc3Cl)nc12 (stereo not given),2.44%,0.974%,6.91%,0.803%,3.08%
C=CC(=O)N1CCC[C@@H](n2nc(-c3cccc(C(=O)Nc4ccc(C(C)C)c(C)c4)c3)c3c(N)ncnc32)C1,-1.65%,19.8%,7.77%,-19.7%,6.38%
O=C(Cc1ccccc1F)N1CC2CC(C1)[C@H]1CCCC(=O)N1C2 (stereo not given in full),-4.57%,-4.93%,-1.3%,-3.86%,-6.61%
O=C(c1ccccc1)N1CCCC2(CC(c3ccccn3)=NO2)C1 (stereo not given),-3.14%,-4.27%,0.541%,-6.61%,-1.89%
Clc1cc(NC2CCCCC2)n2nccc2n1,-4.7%,0.423%,-2.79%,-2.84%,9.19%
CCOCCCNc1nc2c(S(=O)(=O)c3ccc(C)c(C)c3)nnn2c2ccc(Cl)cc12,-11.6%,-0.895%,-6.12%,-3.02%,-9.98%
Cc1ccc(N(C)S(=O)(=O)c2ccc3[nH]c4c(c3c2)CCCC4)cc1,1.56%,0.129%,-4.32%,-6.91%,-1.62%
Cc1cccc(N2CCN(C(=O)c3cc4n(n3)CC(c3ccc(Cl)cc3)OC4)CC2)c1 (stereo not given),-3.13%,1.91%,-0.017%,-2.19%,-30.8%
CC1(C(=O)NCc2ccccc2)Cn2c(ccc2-c2ccco2)C(=O)N1CCc1ccc(Cl)cc1 (stereo not given),2.3%,0%,9.31%,3.82%,0.516%
COC(=O)C1=CO[C@@H](O[C@@H]2O[C@H](CO)[C@@H](O)[C@H](O)[C@H]2O)[C@@H]2[C@@H](C(=O)O)CC[C@H]12,-4.09%,-1.22%,8.24%,-16.2%,-10.9%
Cc1cc2occ(CN(C)CCN(C)Cc3cn(-c4cccc(C(F)(F)F)c4)c4ccccc34)c(=O)c2cc1C,-1.79%,14.1%,-36.4%,-45%,1.54%
Cc1cn2nc(C(=O)N3CCN(C(=O)c4ccco4)CC3)cc2c(N2CCCC2)n1,-9.24%,0.033%,-5.51%,-15.1%,-4.12%
CCCn1c(=O)c2ccccc2n2c(=O)n(CC(=O)Nc3cc(Cl)ccc3C)nc12,2.7%,0.965%,8.1%,2.79%,1.77%
O=C1NCCCCCCN(C(=O)c2cccnc2)[C@H]2C[C@H](c3nc(Cc4ccccc4)no3)C[C@@H]12,-3.17%,-2.78%,-0.203%,7.04%,-0.384%
COc1cccc(C(=O)N2CCOC[C@H](Oc3ccccc3)C2)c1,-6.34%,-6.05%,-5.96%,-12.9%,-11.5%
